In paper PMC7819943, “Rice protein-binding microarrays: a tool to detect cis-acting elements near promoter regions in rice”:
The list shows a part of the results.

Target: T1, OsWOX13 (Oryza sativa, UniProt Q5QMM3 1-267)
T1 sequence: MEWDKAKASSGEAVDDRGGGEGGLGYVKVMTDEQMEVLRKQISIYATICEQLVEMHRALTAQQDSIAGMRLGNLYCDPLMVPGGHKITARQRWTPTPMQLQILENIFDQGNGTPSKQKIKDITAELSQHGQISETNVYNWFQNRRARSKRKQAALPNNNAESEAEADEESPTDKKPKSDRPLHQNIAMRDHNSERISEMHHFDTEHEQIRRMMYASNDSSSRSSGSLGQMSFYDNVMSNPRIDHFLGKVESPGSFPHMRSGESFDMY
Experiment: protein-binding microarray (RPBM); PBS, 2% BSA, 51.3 ng/ul salmon testes DNA, 50 uM zinc acetate, 200 nM TF, 25 C, 1 h; high values mean tight binding
Conditions: protein: recombinant; tags: N-terminal polyhistidine and DsRed monomer fusion (pET32a); label: CyDye5-dUTP incorporated in the synthesized complementary strand; 3' TTTTT single-stranded linker to array surface; dsDNA, one strand shown
Method in brief: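 Polyhistidine-tagged DsRed fusions of transcription factors, joined at the N-terminus, were expressed in E. coli BL21-CodonPlus and isolated on Ni–NTA. They were incubated at 200 nM for 1 h at 25 °C on a custom Agilent array, double-stranded and BSA-blocked, in PBS with 2% BSA, salmon testes DNA and 50 µM zinc acetate. The binding signal is per-feature fluorescence intensity (arbitrary units) read on an Axon 4000B scanner after washing.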

| Sequence | binding signal |
| --- | --- |
| TTGCAAAACTGGCTTAATTGATTCCATATTTCCATTCCACCGGAGTCACCTAGTGCAG | 32200 fluorescence intensity (a.u.) |
| ACGTGACATACTACATGTAAATAATTTTACCTTTTATCTTCGGAGTCACCTAGTGCAG | 3950 fluorescence intensity (a.u.) |
| TCAAATTCAAATTATTGAAACAGATCAATATGGCAAAATGCGGAGTCACCTAGTGCAG | 8760 fluorescence intensity (a.u.) |
| CCACTAATTCCTAATACTTAACATGCAAAGATGCCACATCCGGAGTCACCTAGTGCAG | 6370 fluorescence intensity (a.u.) |
| ACAAACACGTAATAACATTAATTTCAATCTACACATCATACGGAGTCACCTAGTGCAG | 9270 fluorescence intensity (a.u.) |
| AAAATTTCAGCTCCAATCATCCAAAATCTTCCACATATACCGGAGTCACCTAGTGCAG | 6860 fluorescence intensity (a.u.) |
| AGATAAATTAAATAGTGGAATATTGTGATTTGATAAGAAGCGGAGTCACCTAGTGCAG | 12200 fluorescence intensity (a.u.) |
| GTCCTGTTTGATTAAGCTTAGGATTATTATAATCTGCATTCGGAGTCACCTAGTGCAG | 6460 fluorescence intensity (a.u.) |
| GAGTTTAATTAGAATCCTTATACCACAATACTAGACATCTCGGAGTCACCTAGTGCAG | 12800 fluorescence intensity (a.u.) |
| CATCCTCAATTAATTGGACATTCTATCTGTACGTGTACATCGGAGTCACCTAGTGCAG | 32700 fluorescence intensity (a.u.) |
| TGCAAATTTGGATCAATGACATATAAGGGAAAAGCTAATTCGGAGTCACCTAGTGCAG | 10700 fluorescence intensity (a.u.) |
| GGCAGGGAGAAATTGAATATAATCAAAGAACAGTACAACGCGGAGTCACCTAGTGCAG | 4980 fluorescence intensity (a.u.) |
| TTACAACAATTACATTTATGAATGCTATACTAGGCTTATGCGGAGTCACCTAGTGCAG | 3330 fluorescence intensity (a.u.) |
| AATTAATTTTAATCCCAATTCTCTTATATAGTGTGTATTACGGAGTCACCTAGTGCAG | 14500 fluorescence intensity (a.u.) |
| ATATTATCTTGTTATTAGTAATTTGATATGAGACGGTGCGCGGAGTCACCTAGTGCAG | 3790 fluorescence intensity (a.u.) |
| ATTCCTGGTTGATTTAAAATCATTCCACTGTTGCTTCTCACGGAGTCACCTAGTGCAG | 13500 fluorescence intensity (a.u.) |
| ATGTCTAACAGCTGATTTGTATAATCTCGGCTGGGCTGTCCGGAGTCACCTAGTGCAG | 13400 fluorescence intensity (a.u.) |
| GAGTAATTAAATTGAGAAATTATGATGGAGGACGAATATGCGGAGTCACCTAGTGCAG | 28300 fluorescence intensity (a.u.) |
| CATTTTGACTGACGTGAATGGTGTATTTAGTTGTGGATATCGGAGTCACCTAGTGCAG | 22300 fluorescence intensity (a.u.) |
| GATATTTTATGACCGGTTTTGATTAGTTAAGGGATGCGGGCGGAGTCACCTAGTGCAG | 3910 fluorescence intensity (a.u.) |
| TTTTCGTTTTAGGATTTATAAATTAATTAATAAATTACATCGGAGTCACCTAGTGCAG | 4300 fluorescence intensity (a.u.) |

| Sequence | binding signal |
| --- | --- |
| ATAATTTGTAATCCTGTAAAGAATTAGCAGAAATTCTCATCGGAGTCACCTAGTGCAG | 7580 fluorescence intensity (a.u.) |
| GGTAATATTTTGATTAAATTTGACTAAATTTTGTTTAAAACGGAGTCACCTAGTGCAG | 11800 fluorescence intensity (a.u.) |
| TCGATGATGATTGATGGATTGATTTTGAGAACTCGAAGGACGGAGTCACCTAGTGCAG | 44700 fluorescence intensity (a.u.) |
| GTTTTGTGTTAAATTTATTGTTAAATCTGTAGTTTTGCGACGGAGTCACCTAGTGCAG | 4120 fluorescence intensity (a.u.) |
| CTAATTATACTTAAATCATAATGTTATAATATATGGATAACGGAGTCACCTAGTGCAG | 15600 fluorescence intensity (a.u.) |
| CATCCATCAATCCCTGAATGCACACAAGCTGCATATCTGCCGGAGTCACCTAGTGCAG | 4610 fluorescence intensity (a.u.) |
| GTTAACCGCCAATTAAAGCTTCCGATCGATTCACATCCTTCGGAGTCACCTAGTGCAG | 19900 fluorescence intensity (a.u.) |
| CACTAATTATTATTAGTTAATTAAGTAATTAAGCACTAGCCGGAGTCACCTAGTGCAG | 41300 fluorescence intensity (a.u.) |
| AACCCATGATTTTGTTACAGCAAACATAAGGTTGAATCTTCGGAGTCACCTAGTGCAG | 4010 fluorescence intensity (a.u.) |
| ATACGGGTTGATTGGGACACCAGTACACCACTGGTGCACCCGGAGTCACCTAGTGCAG | 20100 fluorescence intensity (a.u.) |
| CAGTGGATGATTAATATTGATTAATTATTATAATTGTTTTCGGAGTCACCTAGTGCAG | 39500 fluorescence intensity (a.u.) |
| GTGACCATGACTAATTACCGCAATGAAAACCAAAACCGAGCGGAGTCACCTAGTGCAG | 9180 fluorescence intensity (a.u.) |
| AATAAAATAGCAGTTAAATGAATGAACAACAGTCAAACTGCGGAGTCACCTAGTGCAG | 3350 fluorescence intensity (a.u.) |
| ATTCATGATGGATTTAATGATGAAATCAATCGGATGTTACCGGAGTCACCTAGTGCAG | 15900 fluorescence intensity (a.u.) |
| GGGCGATCATCTATAAATTAACAACGGCCGAGATATAGACCGGAGTCACCTAGTGCAG | 6120 fluorescence intensity (a.u.) |
| CCCTAATTAACTATACTCTACTAATTAAGCTACCCAACCACGGAGTCACCTAGTGCAG | 39900 fluorescence intensity (a.u.) |
| ATAATTGACTTATTATACTACTTCCTCCGTTTCACAATGTCGGAGTCACCTAGTGCAG | 29900 fluorescence intensity (a.u.) |
| GCAGAATAATTAAACCATAGACACATACATAATAATACCACGGAGTCACCTAGTGCAG | 6120 fluorescence intensity (a.u.) |
| GATATTACAAAAGTCCTAATTGATTTCTTTTACATTGATTCGGAGTCACCTAGTGCAG | 7300 fluorescence intensity (a.u.) |
| TCCAATTAAGGAGCAATTAAGGAGGAGAAGGAAGGGAAAACGGAGTCACCTAGTGCAG | 4860 fluorescence intensity (a.u.) |
| GTCGAAATTAGCTAATACATATGTATTGGGTTAGGCATGGCGGAGTCACCTAGTGCAG | 9300 fluorescence intensity (a.u.) |
